# Test results: the supplement of paper PMC8728848
# The list shows a part of the results.
# Experiments:
# Assay in all cases: glycan array binding signal (z-score within array); higher = stronger binding
# Details in all cases: glycan notation: IUPAC condensed, linker removed
# Gal6S(b1-4)Glc6S = target: Gal6S(b1-4)Glc6S
# Procedure, shortened: (§1)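 From the Consortium for Functional Glycomics database, 3228 arrays were curated, keeping only those whose protein sequence was available. Binding is given as a within-array Z-score averaged across arrays sharing a protein sequence and across linkers. Negative Z-scores can be read as non-binding.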
# Gal6S(b1-4)GlcNAc = target: Gal6S(b1-4)GlcNAc
# Procedure, shortened: as §1
# Gal6S(b1-4)GlcNAc6S = target: Gal6S(b1-4)GlcNAc6S
# Procedure, shortened: as §1
# GalNAc(a1-3)Gal = target: GalNAc(a1-3)Gal
# Procedure, shortened: as §1
# GalNAc(a1-3)GalNAc = target: GalNAc(a1-3)GalNAc
# Procedure, shortened: as §1
# [1] = target: GalNAc(a1-3)GalNAc(b1-3)Gal(a1-4)Gal(b1-4)Glc
# Procedure, shortened: as §1
# [2] = target: GalNAc(a1-3)GalNAc(b1-3)Gal(a1-4)Gal(b1-4)GlcNAc
# Procedure, shortened: as §1
# GalNAc(b1-3)Gal = target: GalNAc(b1-3)Gal
# Procedure, shortened: as §1
# [3] = target: GalNAc(b1-3)Gal(a1-4)Gal(b1-4)GlcNAc
# Procedure, shortened: as §1
# [4] = target: GalNAc(b1-3)Gal(a1-4)Gal(b1-4)GlcNAc(b1-3)Gal(b1-4)Glc
# Procedure, shortened: as §1
# [5] = target: GalNAc(b1-3)Gal(a1-6)Gal(b1-4)Glc
# Procedure, shortened: as §1
# GalNAc(b1-3)GalNAc = target: GalNAc(b1-3)GalNAc
# Procedure, shortened: as §1
# GalNAc(b1-3)GlcNAc = target: GalNAc(b1-3)GlcNAc
# Procedure, shortened: as §1
# GalNAc(b1-4)Gal(b1-4)Glc = target: GalNAc(b1-4)Gal(b1-4)Glc
# Procedure, shortened: as §1
# GalNAc(b1-4)GlcNAc = target: GalNAc(b1-4)GlcNAc
# Procedure, shortened: as §1
# [6] = target: GalNAc(b1-4)GlcNAc(b1-2)Man
# Procedure, shortened: as §1
# [7] = target: GalNAc(b1-4)GlcNAc(b1-2)Man(a1-3)[GalNAc(b1-4)GlcNAc(b1-2)Man(a1-6)]Man(b1-4)GlcNAc(b1-4)GlcNAc
# Procedure, shortened: as §1
# [8] = target: GalNAc(b1-4)GlcNAc(b1-3)GalNAc(b1-4)GlcNAc
# Procedure, shortened: as §1
# GalNAc(b1-4)GlcNAc6S = target: GalNAc(b1-4)GlcNAc6S
# Procedure, shortened: as §1
# GalNAc(b1-6)GalNAc = target: GalNAc(b1-6)GalNAc
# Procedure, shortened: as §1
# GalNAc3S(b1-4)GlcNAc = target: GalNAc3S(b1-4)GlcNAc
# Procedure, shortened: as §1
# GalNAc3S(b1-4)GlcNAc3S = target: GalNAc3S(b1-4)GlcNAc3S
# Procedure, shortened: as §1
# [9] = target: GalNAc3S(b1-4)[Fuc(a1-3)]GlcNAc
# Procedure, shortened: as §1
# GalNAc4S6S(b1-4)GlcNAc = target: GalNAc4S6S(b1-4)GlcNAc
# Procedure, shortened: as §1
# GalNAc6S(b1-4)GlcNAc = target: GalNAc6S(b1-4)GlcNAc
# Procedure, shortened: as §1
# Glc(a1-4)Glc = target: Glc(a1-4)Glc
# Procedure, shortened: as §1
# [10] = target: Glc(a1-4)Glc(a1-4)Glc(a1-4)Glc
# Procedure, shortened: as §1
# Glc(a1-6)Glc(a1-6)Glc = target: Glc(a1-6)Glc(a1-6)Glc
# Procedure, shortened: as §1
# [11] = target: Glc(a1-6)Glc(a1-6)Glc(a1-6)Glc
# Procedure, shortened: as §1
# Glc(b1-4)Glc = target: Glc(b1-4)Glc
# Procedure, shortened: as §1
# Glc(b1-6)Glc = target: Glc(b1-6)Glc
# Procedure, shortened: as §1
# GlcA(b1-3)Gal = target: GlcA(b1-3)Gal
# Procedure, shortened: as §1
# GlcA(b1-3)GlcNAc = target: GlcA(b1-3)GlcNAc
# Procedure, shortened: as §1
# GlcA(b1-6)Gal = target: GlcA(b1-6)Gal
# Procedure, shortened: as §1
# [12] = target: GlcA3S(b1-3)Gal(b1-4)GlcNAc(b1-2)Man
# Procedure, shortened: as §1
# [13] = target: GlcA3S(b1-3)Gal(b1-4)GlcNAc(b1-3)Gal(b1-4)Glc
# Procedure, shortened: as §1
# [14] = target: GlcNAc(a1-3)Gal(b1-4)GlcNAc
# Procedure, shortened: as §1
binder,measurement,setting,value
GS13846A-bth-444-19-444 (Bacteroides thetaiotaomicron) (protein) SCENEFDVSDKADSLISVTVNTLNNQAAYNVGETAQAELWIQRGGLKDASGKVQFVVDPLLLDSLNQEDKTNYELLPENCYEMTNTEFTVDKNELCGYITYHPEKILALSAYNETKYVLPLRLISNDLAINPARNTSFLAFTILEPIVHISNAGVYNINPDLTSTMDIQIGVPFTNKWDILCNLTEDLSLIDEYNQINKVNFTLLPENAYTAPESVTLQEGVSQITASYQLKNNLVPGNYILPIKIGSITASQGGVPNNSLVIDEESNVLFCIVKEGNKINKSGWEVIECSSEHAGNEATYMIDDNESTYWHCKFKNEAGSSVPPFHFIIDMKKEITIAQIDLLNRGDGAANNIKWVEFYASNNNSEWDKIGAGDFNDEGTRATFRYYVKSTKARYLKLIIPEGYGNNCPPAAIRELTVYGLEGNN,glycan array binding signal (z-score),Gal6S(b1-4)Glc6S,12.7
same,glycan array binding signal (z-score),Gal6S(b1-4)GlcNAc,4.8
same,glycan array binding signal (z-score),Gal6S(b1-4)GlcNAc6S,8.87
same,glycan array binding signal (z-score),GalNAc(a1-3)Gal,1.59
same,glycan array binding signal (z-score),GalNAc(a1-3)GalNAc,-0.17
same,glycan array binding signal (z-score),[1],-0.324
same,glycan array binding signal (z-score),[2],-0.175
same,glycan array binding signal (z-score),GalNAc(b1-3)Gal,-0.238
same,glycan array binding signal (z-score),[3],-0.302
same,glycan array binding signal (z-score),[4],-0.31
same,glycan array binding signal (z-score),[5],0.013
same,glycan array binding signal (z-score),GalNAc(b1-3)GalNAc,-0.043
same,glycan array binding signal (z-score),GalNAc(b1-3)GlcNAc,-0.08
same,glycan array binding signal (z-score),GalNAc(b1-4)Gal(b1-4)Glc,0
same,glycan array binding signal (z-score),GalNAc(b1-4)GlcNAc,-0.179
same,glycan array binding signal (z-score),[6],-0.214
same,glycan array binding signal (z-score),[7],0.665
same,glycan array binding signal (z-score),[8],-0.044
same,glycan array binding signal (z-score),GalNAc(b1-4)GlcNAc6S,-0.104
same,glycan array binding signal (z-score),GalNAc(b1-6)GalNAc,-0.158
same,glycan array binding signal (z-score),GalNAc3S(b1-4)GlcNAc,-0.282
same,glycan array binding signal (z-score),GalNAc3S(b1-4)GlcNAc3S,-0.32
same,glycan array binding signal (z-score),[9],-0.216
same,glycan array binding signal (z-score),GalNAc4S6S(b1-4)GlcNAc,-0.407
same,glycan array binding signal (z-score),GalNAc6S(b1-4)GlcNAc,5.49
same,glycan array binding signal (z-score),Glc(a1-4)Glc,-0.167
same,glycan array binding signal (z-score),[10],-0.103
same,glycan array binding signal (z-score),Glc(a1-6)Glc(a1-6)Glc,-0.114
same,glycan array binding signal (z-score),[11],-0.043
same,glycan array binding signal (z-score),Glc(b1-4)Glc,-0.32
same,glycan array binding signal (z-score),Glc(b1-6)Glc,-0.626
same,glycan array binding signal (z-score),GlcA(b1-3)Gal,-0.464
same,glycan array binding signal (z-score),GlcA(b1-3)GlcNAc,-0.087
same,glycan array binding signal (z-score),GlcA(b1-6)Gal,0.092
same,glycan array binding signal (z-score),[12],-0.266
same,glycan array binding signal (z-score),[13],-0.082
same,glycan array binding signal (z-score),[14],-0.214
